# Over roughly 33,000 sequences, “E-score (-0.5 to 0.5)” has its median near -0.017; the highest 2% begin near 0.3. The list shows a part of the results.
# Molecular target: T1, Sut1 (UniProt P53032)
# T1 sequence: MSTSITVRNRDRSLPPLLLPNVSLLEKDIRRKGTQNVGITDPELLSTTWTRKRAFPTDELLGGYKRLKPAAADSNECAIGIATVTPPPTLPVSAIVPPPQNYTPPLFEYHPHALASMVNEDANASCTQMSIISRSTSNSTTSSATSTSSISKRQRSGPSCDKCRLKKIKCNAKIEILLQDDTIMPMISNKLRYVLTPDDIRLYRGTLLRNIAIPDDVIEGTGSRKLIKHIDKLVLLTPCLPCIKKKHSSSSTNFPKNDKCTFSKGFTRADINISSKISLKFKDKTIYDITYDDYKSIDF
# Experiment: PBM E-score (8-mer binding enrichment) (E-score (-0.5 to 0.5)); higher = stronger / more preferred TF binding; most listed sequences are background and not binding sites
# Settings: protein concentration: 200 nM; construct: GST-full length
# Outline: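 GST-tagged yeast TFs (full-length or DNA-binding domain) were made by PURExpress in vitro transcription/translation and applied at about 100-200 nM to universal all-10-mer Agilent arrays. The arrays were made double-stranded by primer extension, on fresh or once-stripped slides. Bound protein was detected with fluorescent anti-GST, and scans were normalised with masliner. Each ungapped eight-base word, pooled with its reverse complement, received an E-score (modified Wilcoxon-Mann-Whitney statistic) from the Universal PBM Analysis Suite.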
row,Sequence,PBM E-score
1,CGTGTTGA,0.0354
2,CTTAACGA,0.177
3,AGCTCACT,-0.0799
4,CCAGCCAA,-0.0941
5,AGGTGCCG,-0.0892
6,GCCGAAGC,0.0147
7,ATGCCCAG,-0.129
8,CAGTAAGC,-0.0843
9,CGCTAAAC,0.0389
10,CCGTAGAG,-0.0905
11,CGGAAGTA,0.111
12,GATAATAA,0.234
13,CGGGCATC,-0.286
14,GATATTGC,-0.043
15,CCCCACCG,-0.0479
16,AATGAGCA,0.0424
17,AGCCCCAG,-0.149
18,GAAAACCC,-0.0463
19,CGTTCTTC,-0.0254
20,GCGAAGAC,-0.0548
21,GTTCACCA,-0.057
22,AATTCATC,0.0609
23,ACAGGTTA,-0.176
24,CCCAACCA,-0.0292
25,ACGGGAGA,-0.0376

row,Sequence,PBM E-score
1,ATTCAAAC,0.226
2,AGTAGTCG,-0.0051
3,ATGTCCAA,0.0958
4,TATGCTCA,0.0591
5,TGCGTAAA,0.00721
6,GCTGTGAA,-0.111
7,CCTTGCAA,-0.285
8,ATAGTTGG,-0.0612
9,AGTCCGAA,0.49
10,AATAAGAG,0.177
11,ACCGGGAC,0.0957
12,GTGACGAA,-0.0161
13,CCCAAGGG,-0.376
14,AGGAGTAC,-0.106
15,CACCATTC,-0.0539
16,ACCAATGA,0.0555
17,AATTTTAT,0.317
18,ACCATGCT,-0.126
19,CAAGTTTC,0.11
20,CTAGCTGC,-0.239
21,GGCTGCTA,-0.114
22,CCGCCCTC,-0.162
23,GCACTAGC,-0.242
24,GACCAATA,-0.0611
25,AGTGCCAT,-0.0832

row,Sequence,PBM E-score
1,CCGTCGGA,0.2
2,AGAGCAGC,-0.218
3,CAACTCGG,-0.0767
4,TCCATTCA,0.022
5,GACTGACC,-0.213
6,ACCCACAA,0.207
7,AGCGGTCG,-0.271
8,ACCTCCCA,-0.318
9,AAACTTGC,0.158
10,ATGTTCTA,0.0598
11,ATACGTCA,0.0754
12,CACGTACC,-0.0307
13,ACCAGCCA,-0.235
14,ATCGGCCA,-0.205
15,CGTGTCAC,-0.0273
16,GACGACGC,-0.256
17,AAGGCATT,-0.163
18,CCTTATTA,0.147
19,AATTGACT,0.204
20,ACCCACTC,0.00249
21,CCCCAGAG,-0.386
22,CAGGACTC,-0.158
23,AAAGGTGT,-0.0578
24,ACACCAGA,0.0261
25,CCAAGGGC,-0.0869

row,Sequence,PBM E-score
1,AAACGTTA,0.114
2,CGGAACCG,0.144
3,CGTAACCA,0.0298
4,CCTTCCCC,-0.118
5,CGCATGTC,-0.138
6,GATACATA,0.101
7,AATGGGAT,0.104
8,CACGAGAG,-0.256
9,CTAATCTC,0.141
10,TCAGCTAA,-0.00754
11,GACCTGAA,0.124
12,CGCGCGAG,-0.111
13,AGAACAAA,0.226
14,CAGCTAGC,-0.234
15,AAAGTGGG,0.0173
16,AATTATAT,0.212
17,AATGGACT,0.0013
18,CTGACTGA,-0.167
19,CGGTTTAC,0.00822
20,TTTAGAAA,0.291
21,CGATCTCC,0.145
22,GCTCTATA,0.133
23,AGTCCTGA,-0.109
24,ACTGCACC,-0.137
25,CACGCAAG,-0.131

row,Sequence,PBM E-score
1,GTTAGTCA,-0.0461
2,CGGGGACA,-0.0417
3,GTTTGCCA,-0.0664
4,AAACCCAT,0.165
5,ACGAGACG,-0.147
6,AACCGTGT,0.0158
7,AGTGCCGG,0.0642
8,ATGATGGG,-0.276
9,GCGTCAAC,0.00012
10,ATAGCAAG,0.125
11,AGCTTGAT,0.0197
12,CACTAAGC,-0.105
13,ATGCGCTA,-0.0278
14,CCGCGTAA,-0.0488
15,CTTAAGAC,-0.11
16,CATTGAGC,-0.0414
17,TAGTCAAA,0.168
18,TTACGGAA,0.198
19,CGAAGAGC,0.141
20,ACGGTCCT,-0.258
21,CGATCTTA,-0.0415
22,CAACTCAA,0.18
23,CGATGCGC,-0.106
24,CGTAAAAG,0.1
25,AACGATAT,0.233

row,Sequence,PBM E-score
1,CTGAGGCA,-0.194
2,AAAATCGA,-0.135
3,GCGTCTGA,-0.138
4,AAAATCCG,0.246
5,ATACTATA,0.238
6,CGGATTCC,0.096
7,AGGTAACC,-0.158
8,ACACCAAA,0.0955
9,GCACGTGC,-0.0247
10,GCTGGAAC,-0.227
11,AAAACAAA,0.312
12,CGTCACGC,-0.112
13,CCCGATCC,-0.201
14,GCATTTAC,0.0466
15,AATAGTTG,0.159
16,GAGGGCGA,-0.391
17,CTGATTCC,-0.0283
18,CAGAGGTC,-0.314
19,CACGCCAC,-0.174
20,AAGCACGA,-0.0741
21,GGGAAAAA,0.212
22,AGCCCACC,-0.177
23,ACATTGAT,0.108
24,AGTTGCCC,-0.0388
25,AGGAAGTC,-0.0456

row,Sequence,PBM E-score
1,AAGGCAAG,-3e-05
2,AGTAGATA,0.23
3,GCCCGACC,-0.185
4,AGTAATGA,0.0306
5,CGCGCCTC,0.0917
6,AAGTCAGT,0.149
7,CGAGGAGA,-0.198
8,ATCTGTGC,-0.23
9,ACAGCGCG,-0.136
10,GATCATGC,-0.142
11,GTTCCAAA,0.1
12,ACCTCGAC,-0.163
13,CTAGGGTA,-0.205
14,ATTCTATC,0.103
15,AGGACACC,-0.253
16,AATAGCAG,0.0845
17,AATCGGTG,0.0417
18,ACCGCTGA,-0.0563
19,GGCATATA,0.0338
20,AGGTGGGA,-0.201
21,AATAAACA,0.216
22,ACGTTGTG,-0.0245
